According to the supplement of paper PMC8285479:
Counter-ions that a name gives are not always drawn. ± gives the standard deviation of the averaged measurements. In all, about 1,900 compounds were measured (“normalised cell viability (NPI; 0 = phenylarsine oxide control, 1 = DMSO control)”: median about 1, lowest 2% from about 0.039 on). The list shows a part of the results.

Test system: NCI-H1944
Assay: normalised cell viability (NPI; 0 = phenylarsine oxide control, 1 = DMSO control) (fraction of DMSO control); NCI-H1944 is a non-small cell lung cancer line; higher = more viable cells (less compound toxicity)
Settings: 6 days
[1] = glucocorticoid arm: hydrocortisone 2.75 uM co-treatment, compound 1 µM
[2] = glucocorticoid arm: hydrocortisone 2.75 uM co-treatment, compound 5 µM
[3] = glucocorticoid arm: hydrocortisone 2.75 uM pre-treated 2 days and continued, compound 1 µM
[4] = glucocorticoid arm: hydrocortisone 2.75 uM pre-treated 2 days and continued, compound 5 µM
[5] = glucocorticoid arm: vehicle, compound 1 µM
[6] = glucocorticoid arm: vehicle, compound 5 µM
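Note: CTB read-out in 384-well plates, mean of triplicate wells, normalised per plate against 1 µM phenylarsine oxide and 0.1% DMSO, compounds added 24 h after seeding.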

SMILES | normalised cell viability [1] | normalised cell viability [2] | normalised cell viability [3] | normalised cell viability [4] | normalised cell viability [5] | normalised cell viability [6]
NCCCCCCCCCCN [1,10-Diaminodecane] | 0.9903 ± 0.0091 | 0.967 ± 0.025 | 0.9883 ± 0.0076 | 0.962 ± 0.014 | 0.988 ± 0.0061 | 0.986 ± 0.0072
O=C(c1ccc(C(=O)N2CCC(N3CCCC3)CC2)c(Nc2ccccc2)c1)N1CCC(N2CCCC2)CC1 |  | 1.01 |  | 1.02 |  | 
O=Nc1ccc(O)c2ncccc12 | 1.02 ± 0.019 | 0.964 ± 0.047 | 1.01 ± 0.018 | 1.03 ± 0.022 | 0.989 ± 0.022 | 0.243 ± 0.13
OCCN1CCN(CCCN2c3ccccc3Sc3ccc(Cl)cc32)CC1 [Perphenazine] | 0.983 ± 0.015 | 0.917 ± 0.035 | 1.023 ± 0.0058 | 1.05 ± 0.021 | 1.03 ± 0.01 | 1.02 ± 0.029
CNc1nc(Nc2cnn(C3CCN(C4COC4)CC3F)c2Cl)ncc1C(F)(F)F (stereo not given) | 1.02 ± 0.01 | 1.05 ± 0.023 | 1.04 ± 0.01 | 1.05 ± 0.01 | 1.007 ± 0.0058 | 1.007 ± 0.0058
CC(C)(C#N)c1ccc(N2C(=O)OCc3cnc4ccc(-c5cnc6ccccc6c5)cc4c32)cc1 | 0.892 ± 0.021 | 0.929 ± 0.0056 | 0.899 ± 0.02 | 0.867 ± 0.047 | 0.9743 ± 0.0065 | 0.9857 ± 0.0064
CCN(CC)Cc1ccc2cc(COC(=O)Nc3ccc(C(=O)NO)cc3)ccc2c1 [Givinostat (ITF2357)] | 0.726 ± 0.049 | 0.00151 ± 0.0022 | 1 ± 0.018 | 0.0193 ± 0.0045 | 0.139 ± 0.006 | 0.000221 ± 0.0011
O=c1oc(Cl)c(Cl)c2ccccc12 [3,4-Dichloroisocoumarin] | 1 ± 0.0095 | 0.99 ± 0.023 | 1.004 ± 0.0098 | 0.976 ± 0.007 | 1.003 ± 0.0058 | 1.01 ± 0.015
O=C(c1ccc(F)cc1)N1CCCC(c2nc(-c3ccc(F)cc3)no2)C1 (stereo not given) | 1.03 ± 0.015 | 1.023 ± 0.0058 | 1.02 ± 0.011 | 1.013 ± 0.0058 | 1.01 | 1.001 ± 0.0078
CN1CCCC(n2nc(Cc3ccc(Cl)cc3)c3ccccc3c2=O)CC1 (stereo not given) [Azelastine HCl] | 0.984 ± 0.018 | 0.933 ± 0.037 | 1.003 ± 0.0058 | 0.946 ± 0.022 | 0.993 ± 0.007 | 0.965 ± 0.014
CN(C)CCC[C@@]1(c2ccc(F)cc2)OCc2cc(C#N)ccc21 [Escitalopram Oxalate] | 0.947 ± 0.023 | 0.914 ± 0.025 | 0.979 ± 0.0044 | 0.943 ± 0.025 | 0.981 ± 0.0027 | 0.976 ± 0.013
O=S(=O)(c1ccccc1)c1cnc2c(N3CCNCC3)cccc2c1 | 1.02 ± 0.015 | 1.03 ± 0.015 | 1.023 ± 0.0058 | 1.017 ± 0.0058 | 1.007 ± 0.0058 | 1.01 ± 0.015
CC(C)C[C@H](NC(=O)[C@H](CCc1ccccc1)NC(=O)CN1CCOCC1)C(=O)N[C@@H](Cc1ccccc1)C(=O)N[C@@H](CC(C)C)C(=O)[C@@]1(C)CO1 [Carfilzomib (PR-171)] | 0.0181 ± 0.0047 | 0.000755 ± 0.00097 | 0.777 ± 0.051 | 0.12 ± 0.025 | 0.0054 ± 0.0013 | -0.000926 ± 0.0006
CC(C)C[C@H](NC(=O)[C@H](CCc1ccccc1)NC(=O)CN1CCOCC1)C(=O)N[C@@H](Cc1ccccc1)C(=O)N[C@@H](CC(C)C)C(=O)[C@@]1(C)CO1 [Carfilzomib] | 0.0119 ± 0.0019 | 0.198 ± 0.017 | 0.652 ± 0.035 | 0.986 ± 0.013 | 0.00203 ± 0.0017 | 0.0026 ± 0.00057
O=C(O[C@H]1CN2CCC1CC2)N1CCc2ccccc2[C@@H]1c1ccccc1 [Solifenacin succinate] | 0.99 ± 0.021 | 0.971 ± 0.018 | 0.99 ± 0.051 | 0.9917 ± 0.0081 | 0.9963 ± 0.0063 | 0.9947 ± 0.0046
COc1cc(OC)c(C=C2C(=O)Nc3ccccc32)c(OC)c1 | 1.04 ± 0.01 | 0.723 ± 0.016 | 1.07 ± 0.031 | 1.11 ± 0.015 | 1.017 ± 0.0058 | 0.163 ± 0.029
O=Nc1c(-c2c(O)[nH]c3cc(Br)ccc23)[nH]c2ccccc12 | 1.15 ± 0.01 | 1.24 ± 0.032 | 1.127 ± 0.011 | 1.16 ± 0.031 | 1.04 ± 0.01 | 1.07 ± 0.01

SMILES | normalised cell viability [1] | normalised cell viability [2] | normalised cell viability [3] | normalised cell viability [4] | normalised cell viability [5] | normalised cell viability [6]
CCN(CC)CC#CCOC(=O)C(O)(c1ccccc1)C1CCCCC1 (stereo not given) [Oxybutynin Chloride] | 0.9927 ± 0.0065 | 0.967 ± 0.037 | 1 ± 0.012 | 1.04 ± 0.07 | 1.017 ± 0.0058 | 1.03 ± 0.011
CCN(CC)CC#CCOC(=O)C(O)(c1ccccc1)C1CCCCC1 (stereo not given) [Oxybutynin chloride] | 0.992 ± 0.02 | 0.954 ± 0.018 | 0.986 ± 0.012 | 0.979 ± 0.03 | 0.9887 ± 0.0093 | 0.989 ± 0.018
N=C(N)c1ccccc1 [Benzamidine hydrochloride] | 1.01 ± 0.013 | 1.02 ± 0.01 | 1.003 ± 0.0058 | 1.03 ± 0.028 | 1.007 ± 0.0058 | 1.01
O=C(NCCNCC(O)COc1ccc(O)cc1)N1CCOCC1 (stereo not given) [Xamoterol hemifumarate] | 1.01 ± 0.01 | 1.02 ± 0.021 | 0.933 ± 0.14 | 1.03 ± 0.021 | 0.9973 ± 0.0031 | 1.005 ± 0.0092
O=Nc1c(-c2c(O)[nH]c3ccccc23)[nH]c2ccccc12 [Indirubin-3'-oxime] | 1.047 ± 0.0058 | 0.0929 ± 0.025 | 1.05 | 0.364 ± 0.071 | 1.017 ± 0.0058 | 0.057 ± 0.019
CCCCC/C=C\C[C@@H](O)/C=C/c1cccc(C[C@@H](O)CCCCO)n1 | 1.005 ± 0.0081 | 1.05 ± 0.04 | 1.01 ± 0.015 | 1.04 ± 0.011 | 1.013 ± 0.0058 | 1.027 ± 0.0058
COc1ccc2[nH]cc(CCNC(C)=O)c2c1 [Melatonin] | 1.007 ± 0.0058 | 0.998 ± 0.022 | 1.013 ± 0.0058 | 0.989 ± 0.018 | 0.9957 ± 0.0029 | 1 ± 0.016
CN(C)Cc1cccc(N=C(c2ccccc2)c2c(O)[nH]c3cc(C(N)=O)ccc23)c1 | 0.9887 ± 0.005 | 0.927 ± 0.025 | 0.991 ± 0.019 | 0.943 ± 0.018 | 0.9967 ± 0.0058 | 0.985 ± 0.011
COc1ccc(C(=O)NCc2cccnc2)cc1C(=O)NCc1cccnc1 [Picotamide] | 0.989 ± 0.017 | 0.992 ± 0.004 | 0.867 ± 0.26 | 1 ± 0.016 | 1.007 ± 0.0058 | 1.003 ± 0.0064
O=c1c(O)c(-c2cc(O)c(O)c(O)c2)oc2cc(O)cc(O)c12 [Myricetin] | 1.006 ± 0.0075 | 1.01 ± 0.02 | 0.999 ± 0.0017 | 1.05 ± 0.063 | 0.992 ± 0.0072 | 0.998 ± 0.011
c1ccc(C(NCCNC(c2ccccc2)c2ccccc2)c2ccccc2)cc1 | 1.023 ± 0.0058 | 1.027 ± 0.0058 | 1.01 ± 0.01 | 1.05 ± 0.017 | 1.007 ± 0.0058 | 1.03 ± 0.01
Cc1ccc(NC(=O)c2ccc(CN3CCN(C)CC3)cc2)cc1Nc1nc(-c2cccnc2)cs1 [Masitinib (AB1010)] | 1.04 ± 0.015 | 1.05 ± 0.02 | 1.03 ± 0.01 | 1.05 ± 0.036 | 0.9963 ± 0.0035 | 0.995 ± 0.0044
COc1nc(C)nc(Cl)c1NC1=NCCN1 [Moxonidine hydrochloride] | 0.986 ± 0.012 | 0.991 ± 0.032 | 0.999 ± 0.0017 | 0.986 ± 0.085 | 0.9973 ± 0.0031 | 0.9957 ± 0.0021
NCCS(=O)(=O)O [Taurine] | 1.001 ± 0.0078 | 1.02 ± 0.015 | 1.02 ± 0.025 | 1.02 ± 0.015 | 0.99033 ± 0.00058 | 0.989 ± 0.003
COc1cc2nc(N3CCN(C(=O)c4ccco4)CC3)nc(N)c2cc1OC [Prazosin hydrochloride] | 0.9863 ± 0.0076 | 0.948 ± 0.015 | 1.02 ± 0.011 | 1.04 ± 0.015 | 1.01 ± 0.01 | 0.827 ± 0.03
N#CC(C#N)=C(N)/C(C#N)=C/c1ccc(O)cc1 [Tyrphostin AG 112] | 1.001 ± 0.0081 | 1.02 ± 0.01 | 1.01 ± 0.023 | 1.02 ± 0.029 | 1.002 ± 0.0072 | 1.001 ± 0.0085
CCN(CC)CCNC(=O)c1cc(S(C)(=O)=O)ccc1OC [Tiapride hydrochloride] | 1 ± 0.0089 | 1.01 ± 0.02 | 1.03 ± 0.021 | 1.005 ± 0.0081 | 0.9997 ± 0.009 | 0.998 ± 0.0035
